B1: H3×B1D2: bispecific antibody, SEQ ID NO: 41: anti-ErbB3 single chain antibody H3 linked to anti-ErbB2 single chain antibody B1D2 (protein)
chain: QVQLQESGGGLVKPGGSLRLSCAASGFTFSSYWMSWVRQAPGKGLEWVANINRDGSASYYVDSVKGRFTISRDDAKNSLYLQMNSLRAEDTAVYYCARDRGVGYFDLWGRGTLVTVSSASTGGGGSGGGGSGGGGSQSALTQPASVSGSPGQSITISCTGTSSDVGGYNFVSWYQQHPGKAPKLMIYDVSDRPSGVSDRFSGSKSGNTASLIISGLQADDEADYYCSSYGSSSTHVIFGGGTKVTVLGAAS[about 600 residues skipped]AAALQVQLVQSGAEVKKPGESLKISCKGSGYSFTSYWIAWVRQMPGKGLEYMGLIYPGDSDTKYSPSFQGQVTISVDKSVSTAYLQWSSLKPSDSAVYFCARHDVGYCTDRTCAKWPEWLGVWGQGTLVTVSSGGGGSSGGGSGGGGSQSVLTQPPSVSAAPGQKVTISCSGSSSNIGNNYVSWYQQLPGTAPKLLIYDHTNRPAGVPDRFSGSKSGTSASLAISGFRSEDEADYYCASWDYTLSGWVFGGGTKLTVLG
B2: H3 x B1D2 (protein)
chain: QVQLQESGGGLVKPGGSLRLSCAASGFTFSSYWMSWVRQAPGKGLEWVANINRDGSASYYVDSVKGRFTISRDDAKNSLYLQMNSLRAEDTAVYYCARDRGVGYFDLWGRGTLVTVSSASTGGGGSGGGGSGGGGSQSALTQPASVSGSPGQSITISCTGTSSDVGGYNFVSWYQQHPGKAPKLMIYDVSDRPSGVSDRFSGSKSGNTASLIISGLQADDEADYYCSSYGSSSTHVIFGGGTKVTVLGAAS[about 600 residues skipped]AAALQVQLVQSGAEVKKPGESLKISCKGSGYSFTSYWIAWVRQMPGKGLEYMGLIYPGDSDTKYSPSFQGQVTISVDKSVSTAYLQWSSLKPSDSAVYFCARHDVGYCTDRTCAKWPEWLGVWGQGTLVTVSSGGGGSSGGGSGGGGSQSVLTQPPSVSAAPGQKVTISCSGSSSNIGNNYVSWYQQLPGTAPKLLIYDHTNRPAGVPDRFSGSKSGTSASLAISGFRSEDEADYYCASWDYTLSGWVFGGGTKLTVLG

Columns and labels:
LS180 xenograft tumor = assay: Xenograft tumor model treated with H3×B1D2: LS180; assay type: in vivo, nu/nu mice; details: 600 μg/injection every 3 days, RGR of 1 = no effect
Experimental: (§1) To characterize the in vivo response of tumors to H3×B1D2 treatment, a panel of tumor cell lines was tested in a xenograft tumor model such as described in Example 1. In the xenograft tumor models, mice (nu/nu mice: 4-5 week old female mice, athymic, nude, outbred background; Albino; purchased from Charles River Labs, Wilmington, Mass.) are implanted in the flank with 5×10^6−2×10^7 cells/mouse (depending on cell line) in 200 μl via subcutaneous injection. Mice are monitored for initial tumor growth. Tumors are allowed to grow for several days until the mean tumor volume is approximately 150-200 mm^3. The tumor volume is calculated as V=(π/6 (L×W^2). The mice are treated with the H3×B1D2 antibody at a dosage of 600 μg/injection every 3 days (q3d). Control mice are treated with phosphate buffered saline (PBS) or with wild-type HSA (human serum albumin). Tumor volume is measured for 40-80 days.
(§2) The control and treatment data from the in vivo xenograft experiments was fitted to exponential growth curves, using the following formula: V=Vo*exp(k*t)
(§3) wherein V is the tumor volume, Vo is the tumor volume at time zero, k is the exponential growth rate and t is the time. The potency of H3×B1D2 in inhibiting tumor growth was represented as the ratio of treatment and control exponential growth rates for each cell line tested. […]

BT474-M3 xenograft tumor = assay: Xenograft tumor model treated with H3×B1D2: BT474-M3; assay type: in vivo, nu/nu mice; details: 600 μg/injection every 3 days, negative RGR = tumor regression
Experimental: as §1, §2, §3

[1] = tested on: pErbB3 and pAKT levels in ADRr cells; assay: Inhibition of HRG-induced pErbB3 and pAKT signaling by H3×B1D2 in ADRr cells (ELISA); assay type: cell-based; details: ADRr cells (low ErbB2); 5 nM HRG stimulation, ten-minute lysis
Experimental: (§4) For stimulation of the cells, the cells are seeded in duplicate wells with 1000 μl complete media at 150,000 cells per well in 12 well tissue culture plates (for 96 half well ELISA) or in duplicate plate of 100 μl complete media at 20,000 cells per well in 96 well tissue culture plates (for 384 well ELISA). These cells are incubated overnight in a humidified atmosphere of 5% CO2, 95% air and 37 degrees Celsius. Cells are then switched to serum free media: RPMI-1640 media (Gibco) supplemented with, 2 mM L-glutamine (Gibco) and units/mL Pen-Strep (Gibco). Starved cells are incubated in a humidified atmosphere of 5% CO2, 95% air and 37 degrees Celsius for 20-24 hours prior to stimulation. For dose-time matrix studies, cells are stimulated with ligand (HRG) at 0, 1, 2, 3, 4, 5, 7, 10, 20, 30, 60 and 120 minutes. Following stimulation with six different concentrations of HRG (0.098 nM-100 nM) for each time course, cells are placed on ice, washed with cold PBS, then lysed in 200 μl for 12 well plates and […]
(§5) Levels of protein phosphorylation in the stimulated cells are measured by ELISA. ErbB1, ErbB2, and ErbB3 are measured using R&D Systems Duoset IC kits (ErbB1 DYC1095-E, ErbB2 DYC1768-E, ErbB3 DYC1769-E). […] All ELISAs are visualized with SuperSignal ELISA Pico Chemiluminescent Substrate (Pierce, Catalog #37069) and luminescent signal is measured using a luminometer. […]

[2] = tested on: pErbB3 and pAKT levels in OVCAR8 and OVCAR8-HER2 cells; assay: Inhibition of HRG-induced pErbB3 and pAKT signaling by H3×B1D2 in OVCAR8 and OVCAR8-HER2 cells (ELISA); assay type: cell-based; details: ErbB2-transfected OVCAR8-HER2 vs OVCAR8 cells; 5 nM HRG stimulation, ten-minute lysis
Experimental: as §4, §5

IGROV1 xenograft tumor = assay: Xenograft tumor model treated with H3×B1D2: IGROV1; assay type: in vivo, nu/nu mice; details: 600 μg/injection every 3 days, RGR of 1 = no effect
Experimental: as §1, §2, §3

ErbB2 = ErbB2 (Homo sapiens, UniProt P04626); assay: H3×B1D2: on-rate and off-rate of B1D2 single chain arm by BIACore and KinExA (Tables 16a, 16b); assay type: binding
Description: (§6) Next, a computational representation of the mechanism by which H3×B1D2 inhibits HRG-dependent signaling of the ErbB pathway was developed. The computational representation of the inhibitor was constructed using mass-action reaction equations that describe the binding of inhibitor to ErbB2 and ErbB3 and subsequent inhibition of HRG-induced signaling. Parameters for the binding events were obtained by a combination of direct measurement (using techniques widely known in the art) and computational training of the model to match data for the inhibition of HRG-induced pErbB3 in cells by H3×B1D2. In particular, the on-rate and off-rate for binding of the H3 single chain arm of the bispecific antibody to ErbB3 and the on-rate and off-rate for the binding of the B1D2 single chain arm of the bispecific antibody to ErbB2 were experimentally determined by standard BIACore and KinExA technology. Reactions and parameters for the computational model of H3×B1D2 appear in Tables 16a and 16b.

ErbB3 = ErbB3 (Homo sapiens, UniProt P21860); assay: H3×B1D2: on-rate and off-rate of H3 single chain arm by BIACore and KinExA (Tables 16a, 16b); assay type: binding
Description: as §6

Molecule	relative growth rate (RGR = kH3×B1D2/kcontrol) (LS180 xenograft tumor)	relative growth rate (RGR = kH3×B1D2/kcontrol) (BT474-M3 xenograft tumor)	percentage of inhibition of pErbB3 and pAKT [1]	inhibition percentage of pErbB3 and pAKT, OVCAR8-HER2 compared to OVCAR8 [2]	relative growth rate (RGR = kH3×B1D2/kcontrol) (IGROV1 xenograft tumor)	h3xb1d2_kr1: reverse parameter, E2 + (H3 x B1D2) <-> E2:(H3 x B1D2) (ErbB2; off-rate of B1D2 arm from ErbB2) [s⁻¹]	h3xb1d2_kf1: forward parameter, E2 + (H3 x B1D2) <-> E2:(H3 x B1D2) (ErbB2; on-rate of B1D2 arm to ErbB2)	h3xb1d2_kr2: reverse parameter, (H3 x B1D2) + E3 <-> (H3 x B1D2):E3 (ErbB3; off-rate of H3 arm from ErbB3) [s⁻¹]	h3xb1d2_kf2: forward parameter, (H3 x B1D2) + E3 <-> (H3 x B1D2):E3 (ErbB3; on-rate of H3 arm to ErbB3)
B1	greater than 1	negative	poor percentage of inhibition	greater inhibition percentage	greater than 1				
B2						0.00015	3.13E+04 (mol/L)-1sec-1	0.022	3.50E+05 (mol/L)-1sec-1

Reference: patent US20110027291A1, “METHODS, SYSTEMS AND PRODUCTS FOR PREDICTING RESPONSE OF TUMOR CELLS TO A THERAPEUTIC AGENT AND TREATING A PATIENT ACCORDING TO THE PREDICTED RESPONSE” (MERRIMACK PHARMACEUTICALS, INC., priority 2008, published 2011)
